Measurements published in the supplement of paper PMC4967469.

What was measured:
Experiment in all cases: Viability of human cancer cell lines after 72 h of drug (GDSC screen)
[1] = compound: C=C(c1ccc(C(=O)O)cc1)c1cc2c(cc1C)C(C)(C)CCC2(C)C [Bexarotene]; conditions: top dose 8 µM
Protocol: (§1)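 Human cancer cell lines in 384-well plates, medium with 10% serum, drug for 72 h over a 256-fold dose range (nine 2-fold or five 4-fold steps up to the top dose). Adherent lines were fixed and stained with the nucleic acid dye Syto60, suspension lines read with resazurin; signal relative to control wells, capped at 0 and 100%. One two-parameter sigmoid per drug and line, fitted in a mixed model over all curves with the slope shared within a line.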

[2] = compound: COc1cc(C(=O)NC2CCN(C)CC2)ccc1Nc1ncc2c(n1)N(C1CCCC1)C(C)CC(=O)N2C [NPK76-II-72-1]; conditions: top dose 10.24 µM; top dose inferred
Protocol: as §1

[3] = compound: COc1cc([C@@H]2c3cc4c(cc3[C@@H](O[C@@H]3O[C@@H]5CO[C@@H](C)O[C@H]5[C@H](O)[C@H]3O)[C@H]3COC(=O)[C@H]23)OCO4)cc(OC)c1O [Etoposide]; conditions: top dose 16 µM
Protocol: as §1

[4] = compound: COc1ccc(C(=O)CC2(O)C(=O)Nc3c(Cl)ccc(Cl)c32)cc1 [YK 4-279]; conditions: top dose 10 µM
Protocol: as §1

[5] = compound: Cc1ccc2nc(NCCN)c3ncc(C)n3c2c1 [BMS-345541]; conditions: top dose 16 µM
Protocol: as §1

[6] = compound: NC(=O)Nc1cc(-c2cccc(F)c2)sc1C(=O)N[C@H]1CCCNC1 [AZD7762]; conditions: top dose 2 µM
Protocol: as §1

[7] = compound: O=C(O)c1ccc(-c2c[nH]c3ncc(-c4ccccc4)cc23)cc1C1CCCC1 [GSK-650394]; conditions: top dose 16 µM; top dose inferred
Protocol: as §1

[8] = compound: Oc1nc(-c2ccc(C(F)(F)F)cc2)nc2c1CSCC2 [XAV 939]; conditions: top dose 5 µM; top dose inferred
Protocol: as §1

Cell Line: KON (head and neck, adherent)
- AUC [1]: 0.959
- IC50 [1]: > 8 µM
- AUC [2]: 0.987
- IC50 [2]: > 10.2 µM
- AUC [3]: 0.449
- IC50 [3]: 0.73 µM
- AUC [4]: 0.655
- IC50 [4]: 1.67 µM
- AUC [5]: 0.967
- IC50 [5]: > 16 µM
- AUC [6]: 0.299
- IC50 [6]: 0.0344 µM
- AUC [7]: 0.62
- IC50 [7]: 2.12 µM
- AUC [8]: 0.985
- IC50 [8]: > 5 µM

Cell Line: KOPN-8 (B-cell leukaemia, suspension)
- AUC [1]: 0.934
- IC50 [1]: > 8 µM
- AUC [2]: 0.789
- IC50 [2]: 3.83 µM
- AUC [3]: 0.482
- IC50 [3]: 0.898 µM
- AUC [4]: 0.621
- IC50 [4]: 1.27 µM
- AUC [5]: 0.887
- IC50 [5]: 13.4 µM
- AUC [6]: 0.569
- IC50 [6]: 0.187 µM
- AUC [7]: 0.853
- IC50 [7]: 9.87 µM
- AUC [8]: 0.986
- IC50 [8]: > 5 µM

Cell Line: KS-1 (glioma, adherent)
- AUC [1]: 0.807
- IC50 [1]: 5.38 µM
- AUC [2]: 0.862
- IC50 [2]: > 10.2 µM
- AUC [3]: 0.423
- IC50 [3]: 0.583 µM
- AUC [4]: 0.739
- IC50 [4]: 3.65 µM
- AUC [5]: 0.865
- IC50 [5]: > 16 µM
- AUC [6]: 0.708
- IC50 [6]: 0.563 µM
- AUC [7]: 0.881
- IC50 [7]: > 16 µM
- AUC [8]: 0.926
- IC50 [8]: > 5 µM

Cell Line: KU812 (chronic myeloid leukaemia, suspension)
- AUC [1]: 0.92
- IC50 [1]: > 8 µM
- AUC [2]: 0.386
- IC50 [2]: 0.32 µM
- AUC [3]: 0.594
- IC50 [3]: 1.77 µM
- AUC [4]: 0.841
- IC50 [4]: 6.06 µM
- AUC [5]: 0.815
- IC50 [5]: 7.85 µM
- AUC [6]: 0.426
- IC50 [6]: 0.0798 µM
- AUC [7]: 0.67
- IC50 [7]: 2.84 µM
- AUC [8]: 0.985
- IC50 [8]: > 5 µM

Cell Line: KY821 (leukaemia, suspension)
- AUC [1]: 0.982
- IC50 [1]: > 8 µM
- AUC [2]: 0.892
- IC50 [2]: 9.38 µM
- AUC [3]: 0.957
- IC50 [3]: > 16 µM
- AUC [4]: 0.732
- IC50 [4]: 2.58 µM
- AUC [5]: 0.902
- IC50 [5]: > 16 µM
- AUC [6]: 0.683
- IC50 [6]: 0.377 µM
- AUC [7]: 0.989
- IC50 [7]: > 16 µM
- AUC [8]: 0.99
- IC50 [8]: > 5 µM

Cell Line: KYM-1 (rhabdomyosarcoma, adherent)
- AUC [1]: 0.991
- IC50 [1]: > 8 µM
- AUC [2]: 0.95
- IC50 [2]: > 10.2 µM
- AUC [3]: 0.826
- IC50 [3]: 7.85 µM
- AUC [4]: 0.673
- IC50 [4]: 1.75 µM
- AUC [5]: 0.991
- IC50 [5]: > 16 µM
- AUC [6]: 0.548
- IC50 [6]: 0.165 µM
- AUC [7]: 0.987
- IC50 [7]: > 16 µM
- AUC [8]: 0.969
- IC50 [8]: > 5 µM

Cell Line: KYSE-50 (oesophagus, adherent)
- AUC [1]: 0.912
- IC50 [1]: > 8 µM
- AUC [2]: 0.904
- IC50 [2]: > 10.2 µM
- AUC [3]: 0.442
- IC50 [3]: 0.706 µM
- AUC [4]: 0.757
- IC50 [4]: 3.17 µM
- AUC [5]: 0.868
- IC50 [5]: 12.5 µM
- AUC [6]: 0.798
- IC50 [6]: 0.861 µM
- AUC [7]: 0.647
- IC50 [7]: 2.45 µM
- AUC [8]: 0.989
- IC50 [8]: > 5 µM

Cell Line: KYSE-70 (oesophagus, adherent)
- AUC [1]: 0.926
- IC50 [1]: > 8 µM
- AUC [2]: 0.979
- IC50 [2]: > 10.2 µM
- AUC [3]: 0.829
- IC50 [3]: 11.2 µM
- AUC [4]: 0.588
- IC50 [4]: 1.12 µM
- AUC [5]: 0.912
- IC50 [5]: > 16 µM
- AUC [6]: 0.89
- IC50 [6]: > 2 µM
- AUC [7]: 0.82
- IC50 [7]: 10.3 µM
- AUC [8]: 0.973
- IC50 [8]: > 5 µM

Cell Line: KYSE-150 (oesophagus, adherent)
- AUC [1]: 0.961
- IC50 [1]: > 8 µM
- AUC [2]: 0.959
- IC50 [2]: > 10.2 µM
- AUC [3]: 0.398
- AUC [4]: 0.864
- IC50 [4]: 8.13 µM
- AUC [5]: 0.922
- IC50 [5]: > 16 µM
- AUC [6]: 0.957
- IC50 [6]: > 2 µM
- AUC [7]: 0.717
- IC50 [7]: 3.98 µM
- AUC [8]: 0.982
- IC50 [8]: > 5 µM

Cell Line: KYSE-450 (oesophagus, adherent)
- AUC [1]: 0.906
- IC50 [1]: > 8 µM
- AUC [2]: 0.904
- IC50 [2]: > 10.2 µM
- AUC [3]: 0.615
- IC50 [3]: 2.03 µM
- AUC [4]: 0.68
- IC50 [4]: 1.92 µM
- AUC [5]: 0.712
- IC50 [5]: 3.82 µM
- AUC [6]: 0.727
- IC50 [6]: 0.53 µM
- AUC [7]: 0.659
- IC50 [7]: 2.69 µM
- AUC [8]: 0.97
- IC50 [8]: > 5 µM

Cell Line: KYSE-510 (oesophagus, adherent)
- AUC [1]: 0.929
- IC50 [1]: > 8 µM
- AUC [2]: 0.929
- IC50 [2]: > 10.2 µM
- AUC [3]: 0.425
- IC50 [3]: 0.646 µM
- AUC [4]: 0.623
- IC50 [4]: 1.28 µM
- AUC [5]: 0.935
- IC50 [5]: > 16 µM
- AUC [6]: 0.848
- IC50 [6]: 1.12 µM
- AUC [7]: 0.526
- IC50 [7]: 1.16 µM
- AUC [8]: 0.968
- IC50 [8]: > 5 µM

Cell Line: KYSE-520 (oesophagus, adherent)
- AUC [1]: 0.955
- IC50 [1]: > 8 µM
- AUC [2]: 0.968
- IC50 [2]: > 10.2 µM
- AUC [3]: 0.853
- IC50 [3]: > 16 µM
- AUC [4]: 0.846
- IC50 [4]: > 10 µM
- AUC [5]: 0.884
- IC50 [5]: > 16 µM
- AUC [6]: 0.765
- IC50 [6]: 0.984 µM
- AUC [7]: 0.967
- IC50 [7]: > 16 µM
- AUC [8]: 0.979
- IC50 [8]: > 5 µM

Cell Line: L-428 (Hodgkin lymphoma, suspension)
- AUC [1]: 0.988
- IC50 [1]: > 8 µM
- AUC [2]: 0.965
- IC50 [2]: > 10.2 µM
- AUC [3]: 0.697
- IC50 [3]: 3.31 µM
- AUC [4]: 0.917
- IC50 [4]: > 10 µM
- AUC [5]: 0.891
- IC50 [5]: 14.7 µM
- AUC [6]: 0.704
- IC50 [6]: 0.432 µM
- AUC [7]: 0.954
- IC50 [7]: > 16 µM
- AUC [8]: 0.992
- IC50 [8]: > 5 µM

Cell Line: L-540 (Hodgkin lymphoma, suspension)
- AUC [1]: 0.935
- IC50 [1]: > 8 µM
- AUC [2]: 0.899
- IC50 [2]: > 10.2 µM
- AUC [3]: 0.533
- IC50 [3]: 1.22 µM
- AUC [4]: 0.574
- IC50 [4]: 0.971 µM
- AUC [5]: 0.876
- IC50 [5]: 12.9 µM
- AUC [6]: 0.516
- IC50 [6]: 0.138 µM
- AUC [7]: 0.952
- IC50 [7]: > 16 µM
- AUC [8]: 0.981
- IC50 [8]: > 5 µM

Cell Line: L-1236 (Hodgkin lymphoma, suspension)
- AUC [1]: 0.981
- IC50 [1]: > 8 µM
- AUC [2]: 0.972
- IC50 [2]: > 10.2 µM
- AUC [3]: 0.875
- IC50 [3]: 11.7 µM
- AUC [4]: 0.981
- IC50 [4]: > 10 µM
- AUC [5]: 0.908
- IC50 [5]: > 16 µM
- AUC [6]: 0.675
- IC50 [6]: 0.352 µM
- AUC [7]: 0.982
- IC50 [7]: > 16 µM
- AUC [8]: 0.991
- IC50 [8]: > 5 µM

Cell Line: LAMA-84 (chronic myeloid leukaemia, suspension)
- AUC [1]: 0.914
- IC50 [1]: > 8 µM
- AUC [2]: 0.599
- IC50 [2]: 1.21 µM
- AUC [3]: 0.808
- IC50 [3]: 8.42 µM
- AUC [4]: 0.983
- IC50 [4]: > 10 µM
- AUC [5]: 0.861
- IC50 [5]: 13.9 µM
- AUC [6]: 0.404
- IC50 [6]: 0.0679 µM
- AUC [7]: 0.84
- IC50 [7]: 11.2 µM
- AUC [8]: 0.947
- IC50 [8]: > 5 µM

Cell Line: LAN-6 (neuroblastoma, adherent)
- AUC [1]: 0.982
- IC50 [1]: > 8 µM
- AUC [2]: 0.96
- IC50 [2]: > 10.2 µM
- AUC [3]: 0.98
- IC50 [3]: > 16 µM
- AUC [4]: 0.885
- IC50 [4]: > 10 µM
- AUC [5]: 0.842
- IC50 [5]: 14.5 µM
- AUC [6]: 0.772
- IC50 [6]: 0.917 µM
- AUC [7]: 0.983
- IC50 [7]: > 16 µM
- AUC [8]: 0.977
- IC50 [8]: > 5 µM

By IC50 is meant the dose at which the fit gives 50% viability; where the fit passes the top or lowest dose, that dose stands as a limit. AUC is the area under the same curve over the 256-fold range up to the top dose, as a fraction: 1 means no effect, lower means more sensitive. For some of these results: An inferred top dose was derived from the fitted curves, not read from the paper.
